According to the supplement of paper PMC11125491:
± gives the standard deviation of the averaged measurements. Growth of baker's yeast expressing single-residue variants of Pneumocystis jirovecii dihydrofolate reductase in 8.8 or 44 µM methotrexate (about 75% and 90% inhibition of the wild type). Selection coefficient per generation; 0 = like wild type, above 0 = less sensitive, below 0 = more sensitive or loss of function. No active / inactive call per row; the paper calls resistant above 0.220 (8.8 µM) or 0.243 (44 µM) together with a significance test. At 44 µM about 15% of codons end with one read or none, so the lowest values are floors (replicate rank correlation 0.74; 0.94 at 8.8 µM).

B1: UniProt A0EPZ9; numbered along this chain (parent)
chain: MDWQKSLTLIVALTLSRGIGLKNDLPWKLKSDMMFFSRVTSGLLVTRSTGQMNVVLMGRKTWESLPAHSRPLKNRINVVISRQEVLDLGGGAYHARSLDDALALLSQIYDSTSKIQLNRVFVIGGGELCKAAMEHSRLNRIIATVIHNEVDCDVFFPIDFRSSQSCLPWRKQDHSVLEAWVGSKVPQGKINENGFIYEFEMWIRDI

Variants of: B1
Test: selection coefficient against synonymous wild-type codons (log2 per generation); higher = faster growth than wild type
Conditions: with Saccharomyces cerevisiae carrying the variant on a plasmid
Description: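 Pooled growth of yeast carrying single-residue variants of P. jirovecii dihydrofolate reductase (own DFR1 gene intact), two passages at 30 °C, three cultures, sequenced before and after. Codons with under 15 starting reads are left out; codons of one change are averaged.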

Variant | selection coefficient against synonymous wild-type codons (log2) (methotrexate 8.8 µM) | selection coefficient against synonymous wild-type codons (log2) (methotrexate 44 µM)
MDWQKSLTLIVALTLSRGIGLKNDLPWKLKSDMMFFSRVTSGLLVTRSTGQMNVVLMGRKTWESLPAHSRPLKNRINVVISRQEVLDLGGGAYHARSLDDALALLSQIYDSTSKIQLNRVFVIGGGELCKAAMEHSRLNRIIATVIHNEVDGDVFFPIDFRSSQSCLPWRKQDHSVLEAWVGSKVPQGKINENGFIYEFEMWIRDI [C152G] | 0.478 ± 0.033 | 0.542 ± 0.028
MDWQKSLTLIVALTLSRGIGLKNDLPWKLKSDMMFFSRVTSGLLVTRSTGQMNVVLMGRKTWESLPAHSRPLKNRINVVISRQEVLDLGGGAYHARSLDDALALLSQIYDSTSKIQLNRVFVIGGGELCKAAMEHSRLNRIIATVIHNEVDADVFFPIDFRSSQSCLPWRKQDHSVLEAWVGSKVPQGKINENGFIYEFEMWIRDI [C152A] | 0.00794 ± 0.046 | -0.0741 ± 0.1
MDWQKSLTLIVALTLSRGIGLKNDLPWKLKSDMMFFSRVTSGLLVTRSTGQMNVVLMGRKTWESLPAHSRPLKNRINVVISRQEVLDLGGGAYHARSLDDALALLSQIYDSTSKIQLNRVFVIGGGELCKAAMEHSRLNRIIATVIHNEVDDDVFFPIDFRSSQSCLPWRKQDHSVLEAWVGSKVPQGKINENGFIYEFEMWIRDI [C152D] | 0.0824 ± 0.054 | 0.205 ± 0.02
MDWQKSLTLIVALTLSRGIGLKNDLPWKLKSDMMFFSRVTSGLLVTRSTGQMNVVLMGRKTWESLPAHSRPLKNRINVVISRQEVLDLGGGAYHARSLDDALALLSQIYDSTSKIQLNRVFVIGGGELCKAAMEHSRLNRIIATVIHNEVDFDVFFPIDFRSSQSCLPWRKQDHSVLEAWVGSKVPQGKINENGFIYEFEMWIRDI [C152F] | 0.0659 ± 0.065 | 0.0186 ± 0.044
MDWQKSLTLIVALTLSRGIGLKNDLPWKLKSDMMFFSRVTSGLLVTRSTGQMNVVLMGRKTWESLPAHSRPLKNRINVVISRQEVLDLGGGAYHARSLDDALALLSQIYDSTSKIQLNRVFVIGGGELCKAAMEHSRLNRIIATVIHNEVDEDVFFPIDFRSSQSCLPWRKQDHSVLEAWVGSKVPQGKINENGFIYEFEMWIRDI [C152E] | 0.407 ± 0.05 | 0.434 ± 0.027
MDWQKSLTLIVALTLSRGIGLKNDLPWKLKSDMMFFSRVTSGLLVTRSTGQMNVVLMGRKTWESLPAHSRPLKNRINVVISRQEVLDLGGGAYHARSLDDALALLSQIYDSTSKIQLNRVFVIGGGELCKAAMEHSRLNRIIATVIHNEVTCDVFFPIDFRSSQSCLPWRKQDHSVLEAWVGSKVPQGKINENGFIYEFEMWIRDI [D151T] | -0.152 ± 0.071 | -0.227 ± 0.088
MDWQKSLTLIVALTLSRGIGLKNDLPWKLKSDMMFFSRVTSGLLVTRSTGQMNVVLMGRKTWESLPAHSRPLKNRINVVISRQEVLDLGGGAYHARSLDDALALLSQIYDSTSKIQLNRVFVIGGGELCKAAMEHSRLNRIIATVIHNEVYCDVFFPIDFRSSQSCLPWRKQDHSVLEAWVGSKVPQGKINENGFIYEFEMWIRDI [D151Y] | -0.271 ± 0.079 | -0.378 ± 0.05
MDWQKSLTLIVALTLSRGIGLKNDLPWKLKSDMMFFSRVTSGLLVTRSTGQMNVVLMGRKTWESLPAHSRPLKNRINVVISRQEVLDLGGGAYHARSLDDALALLSQIYDSTSKIQLNRVFVIGGGELCKAAMEHSRLNRIIATVIHNEVPCDVFFPIDFRSSQSCLPWRKQDHSVLEAWVGSKVPQGKINENGFIYEFEMWIRDI [D151P] | -0.0597 ± 0.056 | -0.127 ± 0.19
MDWQKSLTLIVALTLSRGIGLKNDLPWKLKSDMMFFSRVTSGLLVTRSTGQMNVVLMGRKTWESLPAHSRPLKNRINVVISRQEVLDLGGGAYHARSLDDALALLSQIYDSTSKIQLNRVFVIGGGELCKAAMEHSRLNRIIATVIHNEVQCDVFFPIDFRSSQSCLPWRKQDHSVLEAWVGSKVPQGKINENGFIYEFEMWIRDI [D151Q] | -0.0815 ± 0.07 | 0.077 ± 0.38
MDWQKSLTLIVALTLSRGIGLKNDLPWKLKSDMMFFSRVTSGLLVTRSTGQMNVVLMGRKTWESLPAHSRPLKNRINVVISRQEVLDLGGGAYHARSLDDALALLSQIYDSTSKIQLNRVFVIGGGELCKAAMEHSRLNRIIATVIHNEVNCDVFFPIDFRSSQSCLPWRKQDHSVLEAWVGSKVPQGKINENGFIYEFEMWIRDI [D151N] | -0.0556 ± 0.058 | -0.137 ± 0.044
MDWQKSLTLIVALTLSRGIGLKNDLPWKLKSDMMFFSRVTSGLLVTRSTGQMNVVLMGRKTWESLPAHSRPLKNRINVVISRQEVLDLGGGAYHARSLDDALALLSQIYDSTSKIQLNRVFVIGGGELCKAAMEHSRLNRIIATVIHNEVSCDVFFPIDFRSSQSCLPWRKQDHSVLEAWVGSKVPQGKINENGFIYEFEMWIRDI [D151S] | -0.0671 ± 0.037 | -0.181 ± 0.12
MDWQKSLTLIVALTLSRGIGLKNDLPWKLKSDMMFFSRVTSGLLVTRSTGQMNVVLMGRKTWESLPAHSRPLKNRINVVISRQEVLDLGGGAYHARSLDDALALLSQIYDSTSKIQLNRVFVIGGGELCKAAMEHSRLNRIIATVIHNEVMCDVFFPIDFRSSQSCLPWRKQDHSVLEAWVGSKVPQGKINENGFIYEFEMWIRDI [D151M] | -0.217 ± 0.042 | -0.311 ± 0.068
MDWQKSLTLIVALTLSRGIGLKNDLPWKLKSDMMFFSRVTSGLLVTRSTGQMNVVLMGRKTWESLPAHSRPLKNRINVVISRQEVLDLGGGAYHARSLDDALALLSQIYDSTSKIQLNRVFVIGGGELCKAAMEHSRLNRIIATVIHNEVWCDVFFPIDFRSSQSCLPWRKQDHSVLEAWVGSKVPQGKINENGFIYEFEMWIRDI [D151W] | -0.325 ± 0.077 | -0.323 ± 0.059
MDWQKSLTLIVALTLSRGIGLKNDLPWKLKSDMMFFSRVTSGLLVTRSTGQMNVVLMGRKTWESLPAHSRPLKNRINVVISRQEVLDLGGGAYHARSLDDALALLSQIYDSTSKIQLNRVFVIGGGELCKAAMEHSRLNRIIATVIHNEVRCDVFFPIDFRSSQSCLPWRKQDHSVLEAWVGSKVPQGKINENGFIYEFEMWIRDI [D151R] | -0.208 ± 0.065 | -0.128 ± 0.23
MDWQKSLTLIVALTLSRGIGLKNDLPWKLKSDMMFFSRVTSGLLVTRSTGQMNVVLMGRKTWESLPAHSRPLKNRINVVISRQEVLDLGGGAYHARSLDDALALLSQIYDSTSKIQLNRVFVIGGGELCKAAMEHSRLNRIIATVIHNEVVCDVFFPIDFRSSQSCLPWRKQDHSVLEAWVGSKVPQGKINENGFIYEFEMWIRDI [D151V] | -0.291 ± 0.098 | -0.186 ± 0.18
